Measured values from the supplement of paper PMC8728848.
The list shows a part of the results.

Legend:
Experiment in all cases: glycan array binding signal (z-score within array); higher = stronger binding
Settings in all cases: glycan notation: IUPAC condensed, linker removed
[1] = molecular target: GlcNAc(b1-3)Man
Procedure, shortened: (§1)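 Negative Z-scores can be read as non-binding. The Z-score is calculated within each array and then averaged across arrays of one protein sequence at different concentrations or buffers and across linkers. Arrays, 3228 in all, were curated from the Consortium for Functional Glycomics database and kept only where the protein sequence was available.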

[2] = molecular target: GlcNAc(b1-3)[GlcNAc(b1-4)][GlcNAc(b1-6)]GlcNAc
Procedure, shortened: as §1

[3] = molecular target: GlcNAc(b1-3)[GlcNAc(b1-6)]Gal(b1-4)GlcNAc
Procedure, shortened: as §1

[4] = molecular target: GlcNAc(b1-3)[GlcNAc(b1-6)]GalNAc
Procedure, shortened: as §1

[5] = molecular target: GlcNAc(b1-4)Gal(b1-4)GlcNAc
Procedure, shortened: as §1

[6] = molecular target: GlcNAc(b1-4)GlcNAc
Procedure, shortened: as §1

[7] = molecular target: GlcNAc(b1-4)GlcNAc(b1-4)GlcNAc
Procedure, shortened: as §1

[8] = molecular target: GlcNAc(b1-4)GlcNAc(b1-4)GlcNAc(b1-4)GlcNAc(b1-4)GlcNAc
Procedure, shortened: as §1

[9] = molecular target: GlcNAc(b1-4)GlcNAc(b1-4)GlcNAc(b1-4)GlcNAc(b1-4)GlcNAc(b1-4)GlcNAc
Procedure, shortened: as §1

[10] = molecular target: GlcNAc(b1-4)[GlcNAc(b1-6)]GalNAc
Procedure, shortened: as §1

[11] = molecular target: GlcNAc(b1-6)Gal(b1-4)GlcNAc
Procedure, shortened: as §1

[12] = molecular target: GlcNAc(b1-6)GalNAc
Procedure, shortened: as §1

[13] = molecular target: GlcNAc6S(b1-3)Gal(b1-4)GlcNAc
Procedure, shortened: as §1

[14] = molecular target: Kdn(a2-3)Gal(b1-3)GalNAc
Procedure, shortened: as §1

[15] = molecular target: Kdn(a2-3)Gal(b1-3)GlcNAc
Procedure, shortened: as §1

[16] = molecular target: Kdn(a2-3)Gal(b1-4)Glc
Procedure, shortened: as §1

[17] = molecular target: Kdn(a2-3)Gal(b1-4)GlcNAc
Procedure, shortened: as §1

[18] = molecular target: Kdn(a2-3)Gal(b1-4)[Fuc(a1-3)]GlcNAc
Procedure, shortened: as §1

[19] = molecular target: Kdn(a2-6)Gal(b1-4)GlcNAc
Procedure, shortened: as §1

[20] = molecular target: Man(a1-2)Man(a1-2)Man(a1-3)Man
Procedure, shortened: as §1

[21] = molecular target: Man(a1-2)Man(a1-2)Man(a1-6)[Man(a1-3)]Man
Procedure, shortened: as §1

[22] = molecular target: Man(a1-2)Man(a1-3)Man
Procedure, shortened: as §1

[23] = molecular target: Man(a1-2)Man(a1-3)[Man(a1-2)Man(a1-6)]Man
Procedure, shortened: as §1

[24] = molecular target: Man(a1-2)Man(a1-3)[Man(a1-2)Man(a1-6)]Man(a1-6)[Man(a1-2)Man(a1-2)Man(a1-3)]Man
Procedure, shortened: as §1

[25] = molecular target: Man(a1-2)Man(a1-3)[Man(a1-2)Man(a1-6)]Man(a1-6)[Man(a1-2)Man(a1-2)Man(a1-3)]Man(b1-4)GlcNAc(b1-4)GlcNAc
Procedure, shortened: as §1

[26] = molecular target: Man(a1-2)Man(a1-3)[Man(a1-6)]Man(a1-6)[Man(a1-2)Man(a1-3)]Man(b1-4)GlcNAc(b1-4)GlcNAc
Procedure, shortened: as §1

[27] = molecular target: Man(a1-2)Man(a1-6)[Man(a1-3)]Man(a1-6)[Man(a1-2)Man(a1-2)Man(a1-3)]Man
Procedure, shortened: as §1

[28] = molecular target: Man(a1-2)Man(a1-6)[Man(a1-3)]Man(a1-6)[Man(a1-2)Man(a1-2)Man(a1-3)]Man(b1-4)GlcNAc(b1-4)GlcNAc
Procedure, shortened: as §1

[29] = molecular target: Man(a1-3)[Man(a1-6)]Man
Procedure, shortened: as §1

[30] = molecular target: Man(a1-3)[Man(a1-6)]Man(a1-6)[Man(a1-2)Man(a1-3)]Man(b1-4)GlcNAc(b1-4)GlcNAc
Procedure, shortened: as §1

[31] = molecular target: Man(a1-3)[Man(a1-6)]Man(a1-6)[Man(a1-3)]Man
Procedure, shortened: as §1

[32] = molecular target: Man(a1-3)[Man(a1-6)]Man(a1-6)[Man(a1-3)]Man(b1-4)GlcNAc(b1-4)GlcNAc
Procedure, shortened: as §1

[33] = molecular target: Man(a1-3)[Man(a1-6)]Man(b1-4)GlcNAc(b1-4)GlcNAc
Procedure, shortened: as §1

[34] = molecular target: Man(a1-3)[Man(a1-6)]Man(b1-4)GlcNAc(b1-4)[Fuc(a1-6)]GlcNAc
Procedure, shortened: as §1

[35] = molecular target: Man(a1-6)Man
Procedure, shortened: as §1

[36] = molecular target: Man(b1-4)GlcNAc
Procedure, shortened: as §1

[37] = molecular target: MurNAc(b1-4)GlcNAc
Procedure, shortened: as §1

[38] = molecular target: Neu5Ac(a2-3)Gal
Procedure, shortened: as §1

B1: Epa3to1 (Candida glabrata) (protein)
chain: MGSSHHHHHHSSGLVPRGSHMKRELSSQNPFGYPIGCSPQDVAIIPGLTMELYSYPIVSGTPPNCYDASYVDPEYPRTGYLKRKMVGKSTGVTGNLNYKYSVEKACMVKYGNLPAGYNYNEPLTVSNFTMILYGYFKAQTTGLHTFFVNADDLLYINFGAGNAFDCCKREDSKTKLGEYVAYDIWHVDSSKNKVSLFLEKDLYYPIRMFFNNREYDSSLDLSFSVNGATDQISDFSGYLYSVPDQPDTCPAHIGYDTTCR
[1]
  glycan array binding signal (z-score): 0.203
[2]
  glycan array binding signal (z-score): -0.188
[3]
  glycan array binding signal (z-score): 0.014
[4]
  glycan array binding signal (z-score): -0.653
[5]
  glycan array binding signal (z-score): 0.507
[6]
  glycan array binding signal (z-score): 0.066
[7]
  glycan array binding signal (z-score): -0.73
[8]
  glycan array binding signal (z-score): 4.95
[9]
  glycan array binding signal (z-score): -0.596
[10]
  glycan array binding signal (z-score): -0.662
[11]
  glycan array binding signal (z-score): -0.13
[12]
  glycan array binding signal (z-score): -0.403
[13]
  glycan array binding signal (z-score): 0.276
[14]
  glycan array binding signal (z-score): 0.402
[15]
  glycan array binding signal (z-score): 0.242
[16]
  glycan array binding signal (z-score): -0.072
[17]
  glycan array binding signal (z-score): -0.323
[18]
  glycan array binding signal (z-score): 0.515
[19]
  glycan array binding signal (z-score): 0.532
[20]
  glycan array binding signal (z-score): -0.251
[21]
  glycan array binding signal (z-score): 0.788
[22]
  glycan array binding signal (z-score): -0.708
[23]
  glycan array binding signal (z-score): -1.26
[24]
  glycan array binding signal (z-score): -0.102
[25]
  glycan array binding signal (z-score): -0.413
[26]
  glycan array binding signal (z-score): -0.818
[27]
  glycan array binding signal (z-score): -1.04
[28]
  glycan array binding signal (z-score): 0.206
[29]
  glycan array binding signal (z-score): -0.058
[30]
  glycan array binding signal (z-score): 0.637
[31]
  glycan array binding signal (z-score): -0.11
[32]
  glycan array binding signal (z-score): 0.273
[33]
  glycan array binding signal (z-score): -0.496
[34]
  glycan array binding signal (z-score): -0.326
[35]
  glycan array binding signal (z-score): 0.759
[36]
  glycan array binding signal (z-score): 0.076
[37]
  glycan array binding signal (z-score): -0.371
[38]
  glycan array binding signal (z-score): -0.383
